The results in this text go back to the supplement of paper PMC8728848.

The list shows a part of the results.

What all share (experiment): glycan array binding signal (z-score within array); higher = stronger binding
What all share (conditions): glycan notation: IUPAC condensed, linker removed

Assay [1] concerns the target Gal(b1-4)GlcNAc(b1-2)[Gal(b1-4)GlcNAc(b1-6)]Man(a1-6)[GlcNAc(b1-4)][Gal(b1-4)GlcNAc(b1-2)Man(a1-3)]Man(b1-4)GlcNAc(b1-4)GlcNAc. In outline: (§1)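 Columns mapping to the same glycan were averaged after glycan names were converted to IUPAC-condensed notation. The data come from 3228 arrays in the Consortium for Functional Glycomics database, limited to those with an available protein sequence. Binding is reported as a within-array Z-score averaged across arrays of one protein sequence and across linkers.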

Assay [2] concerns the target Gal(b1-4)GlcNAc(b1-2)[Gal(b1-4)GlcNAc(b1-6)]Man(a1-6)[GlcNAc(b1-4)][Gal(b1-4)GlcNAc(b1-2)[Gal(b1-4)GlcNAc(b1-4)]Man(a1-3)]Man(b1-4)GlcNAc(b1-4)[Fuc(a1-6)]GlcNAc. In outline:
as §1

Assay [3] deals with Gal(b1-4)GlcNAc(b1-3)Gal(b1-3)GalNAc. In short, it runs like this: as §1
Assay [4] has as its target Gal(b1-4)GlcNAc(b1-3)Gal(b1-3)GlcNAc. In outline:
as §1

Assay [5] has as its target Gal(b1-4)GlcNAc(b1-3)Gal(b1-4)Glc. In short, it runs like this: as §1
Assay [6] has as its target Gal(b1-4)GlcNAc(b1-3)Gal(b1-4)GlcNAc. In short, it runs like this: as §1
For assay [7], the target named is Gal(b1-4)GlcNAc(b1-3)Gal(b1-4)GlcNAc(b1-2)Man(a1-3)[Gal(b1-4)GlcNAc(b1-3)Gal(b1-4)GlcNAc(b1-2)Man(a1-6)]Man(b1-4)GlcNAc(b1-4)GlcNAc. In short, it runs like this: as §1
Assay [8] addresses Gal(b1-4)GlcNAc(b1-3)Gal(b1-4)GlcNAc(b1-2)Man(a1-3)[Gal(b1-4)GlcNAc(b1-3)Gal(b1-4)GlcNAc(b1-2)Man(a1-6)]Man(b1-4)GlcNAc(b1-4)[Fuc(a1-6)]GlcNAc. In short, it runs like this:
as §1

The target in assay [9] is Gal(b1-4)GlcNAc(b1-3)Gal(b1-4)GlcNAc(b1-2)[Gal(b1-4)GlcNAc(b1-3)Gal(b1-4)GlcNAc(b1-6)]Man(a1-6)[Gal(b1-4)GlcNAc(b1-3)Gal(b1-4)GlcNAc(b1-2)Man(a1-3)]Man(b1-4)GlcNAc(b1-4)GlcNAc. In short, it runs like this: as §1
Assay [10] addresses Gal(b1-4)GlcNAc(b1-3)Gal(b1-4)GlcNAc(b1-2)[Gal(b1-4)GlcNAc(b1-3)Gal(b1-4)GlcNAc(b1-6)]Man(a1-6)[Gal(b1-4)GlcNAc(b1-3)Gal(b1-4)GlcNAc(b1-2)Man(a1-3)]Man(b1-4)GlcNAc(b1-4)[Fuc(a1-6)]GlcNAc. In short, it runs like this: as §1
The target of assay [11] is Gal(b1-4)GlcNAc(b1-3)Gal(b1-4)GlcNAc(b1-3)Gal(b1-4)GlcNAc. In short, it runs like this:
as §1

In assay [12] the target is Gal(b1-4)GlcNAc(b1-3)Gal(b1-4)GlcNAc(b1-3)Gal(b1-4)GlcNAc(b1-2)Man(a1-3)[Gal(b1-4)GlcNAc(b1-3)Gal(b1-4)GlcNAc(b1-3)Gal(b1-4)GlcNAc(b1-2)Man(a1-6)]Man(b1-4)GlcNAc(b1-4)GlcNAc. In short, it runs like this:
as §1

The target of assay [13] is Gal(b1-4)GlcNAc(b1-3)Gal(b1-4)GlcNAc(b1-3)Gal(b1-4)GlcNAc(b1-2)Man(a1-3)[Gal(b1-4)GlcNAc(b1-3)Gal(b1-4)GlcNAc(b1-3)Gal(b1-4)GlcNAc(b1-2)Man(a1-6)]Man(b1-4)GlcNAc(b1-4)[Fuc(a1-6)]GlcNAc. In outline:
as §1

For assay [14], the target named is Gal(b1-4)GlcNAc(b1-3)Gal(b1-4)GlcNAc(b1-3)Gal(b1-4)GlcNAc(b1-2)[Gal(b1-4)GlcNAc(b1-3)Gal(b1-4)GlcNAc(b1-3)Gal(b1-4)GlcNAc(b1-6)]Man(a1-6)[Gal(b1-4)GlcNAc(b1-3)Gal(b1-4)GlcNAc(b1-3)Gal(b1-4)GlcNAc(b1-2)Man(a1-3)]Man(b1-4)GlcNAc(b1-4)[Fuc(a1-6)]GlcNAc. In outline: as §1
Assay [15] deals with Gal(b1-4)GlcNAc(b1-3)Gal(b1-4)GlcNAc(b1-3)Gal(b1-4)GlcNAc(b1-3)Gal(b1-4)GlcNAc(b1-2)Man(a1-3)[Gal(b1-4)GlcNAc(b1-3)Gal(b1-4)GlcNAc(b1-3)Gal(b1-4)GlcNAc(b1-3)Gal(b1-4)GlcNAc(b1-2)Man(a1-6)]Man(b1-4)GlcNAc(b1-4)GlcNAc. In short, it runs like this: as §1
The target in assay [16] is Gal(b1-4)GlcNAc(b1-3)Gal(b1-4)GlcNAc(b1-3)Gal(b1-4)GlcNAc(b1-3)Gal(b1-4)GlcNAc(b1-2)Man(a1-3)[Gal(b1-4)GlcNAc(b1-3)Gal(b1-4)GlcNAc(b1-3)Gal(b1-4)GlcNAc(b1-3)Gal(b1-4)GlcNAc(b1-2)Man(a1-6)]Man(b1-4)GlcNAc(b1-4)[Fuc(a1-6)]GlcNAc. In short, it runs like this: as §1
For assay [17], the target named is Gal(b1-4)GlcNAc(b1-3)Gal(b1-4)GlcNAc(b1-3)Gal(b1-4)GlcNAc(b1-3)Gal(b1-4)GlcNAc(b1-2)[Gal(b1-4)GlcNAc(b1-3)Gal(b1-4)GlcNAc(b1-3)Gal(b1-4)GlcNAc(b1-3)Gal(b1-4)GlcNAc(b1-6)]Man(a1-6)[Gal(b1-4)GlcNAc(b1-3)Gal(b1-4)GlcNAc(b1-3)Gal(b1-4)GlcNAc(b1-3)Gal(b1-4)GlcNAc(b1-2)Man(a1-3)]Man(b1-4)GlcNAc(b1-4)[Fuc(a1-6)]GlcNAc. In short, it runs like this: as §1
The target of assay [18] is Gal(b1-4)GlcNAc(b1-3)Gal(b1-4)GlcNAc(b1-3)Gal(b1-4)GlcNAc(b1-3)Gal(b1-4)GlcNAc(b1-3)Gal(b1-4)GlcNAc(b1-2)Man(a1-3)[Gal(b1-4)GlcNAc(b1-3)Gal(b1-4)GlcNAc(b1-3)Gal(b1-4)GlcNAc(b1-3)Gal(b1-4)GlcNAc(b1-3)Gal(b1-4)GlcNAc(b1-2)Man(a1-6)]Man(b1-4)GlcNAc(b1-4)GlcNAc. In short, it runs like this:
as §1

Assay [19] concerns the target Gal(b1-4)GlcNAc(b1-3)Gal(b1-4)GlcNAc(b1-3)Gal(b1-4)GlcNAc(b1-3)Gal(b1-4)GlcNAc(b1-3)Gal(b1-4)GlcNAc(b1-2)Man(a1-3)[Gal(b1-4)GlcNAc(b1-3)Gal(b1-4)GlcNAc(b1-3)Gal(b1-4)GlcNAc(b1-3)Gal(b1-4)GlcNAc(b1-3)Gal(b1-4)GlcNAc(b1-2)Man(a1-6)]Man(b1-4)GlcNAc(b1-4)[Fuc(a1-6)]GlcNAc. In outline:
as §1

Assay [20] concerns the target Gal(b1-4)GlcNAc(b1-3)Gal(b1-4)GlcNAc(b1-3)Gal(b1-4)GlcNAc(b1-3)Gal(b1-4)GlcNAc(b1-3)Gal(b1-4)GlcNAc(b1-2)[Gal(b1-4)GlcNAc(b1-3)Gal(b1-4)GlcNAc(b1-3)Gal(b1-4)GlcNAc(b1-3)Gal(b1-4)GlcNAc(b1-3)Gal(b1-4)GlcNAc(b1-6)]Man(a1-6)[Gal(b1-4)GlcNAc(b1-3)Gal(b1-4)GlcNAc(b1-3)Gal(b1-4)GlcNAc(b1-3)Gal(b1-4)GlcNAc(b1-3)Gal(b1-4)GlcNAc(b1-2)Man(a1-3)]Man(b1-4)GlcNAc(b1-4)[Fuc(a1-6)]GlcNAc. In short, it runs like this:
as §1

Assay [21] deals with Gal(b1-4)GlcNAc(b1-3)Gal(b1-4)GlcNAc(b1-3)Gal(b1-4)GlcNAc(b1-3)Gal(b1-4)GlcNAc(b1-3)Gal(b1-4)GlcNAc(b1-3)Gal(b1-4)GlcNAc(b1-2)Man(a1-3)[Gal(b1-4)GlcNAc(b1-3)Gal(b1-4)GlcNAc(b1-3)Gal(b1-4)GlcNAc(b1-3)Gal(b1-4)GlcNAc(b1-3)Gal(b1-4)GlcNAc(b1-3)Gal(b1-4)GlcNAc(b1-2)Man(a1-6)]Man(b1-4)GlcNAc(b1-4)GlcNAc. In outline: as §1
Assay [22] deals with Gal(b1-4)GlcNAc(b1-3)Gal(b1-4)GlcNAc(b1-3)GalNAc. In short, it runs like this: as §1
For assay [23], the target named is Gal(b1-4)GlcNAc(b1-3)Gal(b1-4)GlcNAc(b1-3)[Gal(b1-4)GlcNAc(b1-3)Gal(b1-4)GlcNAc(b1-6)]GalNAc. In outline:
as §1

B1: AT1G15820(NC) (Arabidopsis thaliana) (protein)
chain: MAMAVSGAVLSGLGSSFLTGGKRGATALASGVGDAIAPFSFGSLLGTQLLLMGWVESKRWVDFFNPDSQSVEWATPWSKTAENFANYTGDQGYPGGRFFDPLGLAGKNRDGVYEPDFEKLERLKLAEIKHSRLAMVAMLIFYFEAGQGKTPLGALGL
Turning to B1, the “glycan array binding signal (z-score)” value is -0.621 in assay [1]; -0.225 in [2]; -0.449 in assay [3]; -0.387 in assay [4]; 3.65 in assay [5]; -0.397 in [6]. For the same molecule, the “glycan array binding signal (z-score)” value in assay [7] was 0.069; in [8], -0.217; in assay [9], 0.005; in assay [10], 0.273; in assay [11], -0.478; in [12], 0.286. For the same molecule, the “glycan array binding signal (z-score)” value was -0.569 in assay [13]; 0.31 in [14]; 0.202 in [15]; -0.299 in assay [16]; -0.41 in [17]; 0.01 in assay [18]. The “glycan array binding signal (z-score)” value in [19] was -0.115; in assay [20] it was 0.985; in assay [21], 0.039; in [22] it was 0.208; in assay [23], 4.39.
